Results on 167 variants are retold here after the RNAGym collection of RNA variant scans (doi:10.7554/elife.90254).

The chains are these.
B1: LINE1-mini (parent)
chain: GGCAGAGCUCAACACAGCGUGGCAAAGUGGCUGUGGCUAGACUGCC

Read counts are not given, so values of variants with three or more changes are uncertain.

In this data set the parent is B1. Nature of the data set: self-cleavage, relative activity (ratio to wild type); higher = more cleavage; in vitro, sequencing; the parent is a self-cleaving ribozyme.
For C10U A25C C37A, the self-cleavage came to 0.02. Next, A11C A16C G17U G33C U34C G40C: 0.01.

As to A6U U9A G22U G30A C37A, the self-cleavage was determined as 0.16. Next, C15G G35A C37A: 0. Next, C8U G22C G40C: 0.26; G1C G2U C31U: 0.02; A4C A16U G36A: 0.05. Next, G1U C3A C10U: 0.94; G19U G33C U38G: 0.01. As for C3A G33A C45A, the self-cleavage stood at 0.09. Take G5U C13G A39C: the self-cleavage came to 0.03. Next, A12G C13U G17A G35A C37U: 0.01; C10U G17U A24U G35C: 0; G22U G29U G33A C46G: 0.06. Next, C10A G17C C42U: 0.02; C13U A26U G36C G44A: 0.03; A12C A14U G19A C23A G30A G35A: 0.03.

Regarding A4G G17A U43G, the self-cleavage stood at 0.1. Next, C10G G21U U34G: 0.07. With G1C G22U C23U, the self-cleavage was 0.32. As for G17C G21U C46A, the self-cleavage is 0.18. With G19A C23U U34A G40A A41U the figure was 0.07; with G17U G22U A25G, 0.06. With G1U C10A U32G G44U the figure was 0; with G27C G35U A41U, 0.22; with G17U G29U U38C G40U, 0.05.

Regarding U20C U34G G44C, the self-cleavage turned out to be 0.06. With G19C U20A C23A G29U the figure was 0.07; with G2U C8U G35C U38G, 0; with A6C A11C A25C C31U G35C G36C, 0. Next, A6C C13A C31G: 0.09; C8G C10U A11G G19U: 0.02; G2U A4U A11G A14U C45U: 0.01. With G2C A24G G27U the figure was 0.05; with A6C G27U U38C, 0.17. As to C18G C31U U34A C37G, the self-cleavage came out at 0.02. With U9G G30U U32G C42G the figure was 0.05. Next, G29A U34C G44A: 0.09; A4U U32A C37G U38A: 0.08; G1C C18U G33U C46G: 0.01. On to G5U G27A G35A C37G, for which the self-cleavage is 0.03. With C10G A11C C37G the figure was 0.01. With C3U G29U A41U the figure was 0.53; with C13U C15G U32G, 0.09. Take C15A C18G G22C G27A U34C: the self-cleavage came to 0.04. For G5U C31A G40U, the self-cleavage was found to be 0.02. With A14U G21A C23A C45G the figure was 0.02; with G7U C13G G30U, 0.18. With C8A G17A U38C the figure was 0.06; with G1U G7A C13A G17C G29A, 0.21.

Turning to A6G C18G C31U G40C, the self-cleavage was determined as 0. Next, C3U C8G A11U C18G G44A: 0.01.

For the variant A14U G19C G33U G44U, the self-cleavage is 0.02.

As for A4U C8U G19C G22A G30U A39C, the self-cleavage was found to be 0.01. With G22A A26U G36U the figure was 0.1; with C23U G36A C37G, 0.04. With G2A G5U A14C G19C G27A A39C the figure was 0.02. Next, C3A A6U G29U: 1.32; G1U U9G A11G C15A: 0.01. On to C23G G40A G44U C45G C46U, for which the self-cleavage amounted to 0.01. With A4G G30U G40C the figure was 0.08; with A4C C23U G30U G33C G44U C46A, 0.08. With A16G C23A A25U G30C G35C G36A the figure was 0.03.

With U9C C13A G35U A41U, the self-cleavage came to 0.2. With G1U G5U U32C the figure was 0.15.

With G5C C10A A14G G21A C31U, the self-cleavage was determined as 0.03. Consider G5C G36A C37A, for which the self-cleavage amounted to 0.04. Regarding C15A A26G A39G, the self-cleavage is 0.02. For the variant G5U C15U A16G C37G, the self-cleavage was 0.03.

As to G1A C8A U9G, the self-cleavage stood at 0.11. On to G2C A11G G17U U43C, for which the self-cleavage was 0.01.

C15A G19U A39U: the self-cleavage worked out at 0.02. With G21U G30U G35U the figure was 0.1. Next, G5U A25G G29U: 0.04. Take C15G U28G U32G G44U: the self-cleavage was found to be 0. Next, C3U U9A G35C U43G: 0.19; G5A G19U G33A: 0.33. Next, A4G C15U U32G: 0.04; C10U C15A A24G U32C: 0.03; U9A A16U C18A G30A U32C: 0.09. With C3A A11U A14C C23U C31U U32C U34G the figure was 0.01; with G7C C10A C31A A41G, 0.02; with C10A G19A U34A A41C, 0.02.

For G5A A14C A39G, the self-cleavage came to 0.08.

As to G2U C8G C13U, the self-cleavage worked out at 0.04. With C10A A16U U20G the figure was 0.06; with G1U C10A G40A C42U, 0.01. With U9C A14G A26C G30A U32A G36C the figure was 0.04; with A25G G29U G36A A41U C45U, 0.01; with A6G A14C G17U, 0.18. For A4C U9C C18A U32C, the self-cleavage amounted to 0.02. With G2A U9A G22A U34C A41C the figure was 0.13; with A4G G7U G29A G33C, 0.13; with G1A G2A A16C, 0.22. With G5A C8G C18U A24C A41U the figure was 0.02.

In the case of A16G A24C C45G, the self-cleavage amounted to 0.02. On to G1U C10A A11C G19A G21A U43C C45U, for which the self-cleavage is 0.01.

Consider C3G C10U C18A A24C U28C A39G C45U, for which the self-cleavage was determined as 0.02. With U9A A24C C42A the figure was 0.04; with G5C G36C A39U, 0.06. With G21U A26U U34G G35U the figure was 0.06; with G5U G19U G36U C46U, 0.01.

C15A G29C G36U: the self-cleavage was found to be 0.04. Next, G5C C31A U34A U43C: 0. Next, C3G A4C G27U A39U: 0.2; G7U U34G C42U: 0.07; G7A A14C C46U: 0.07.

Regarding C15G C23G G44U C46U, the self-cleavage amounted to 0.02. As for G7C U38C G40C, the self-cleavage turned out to be 0.01. With A11G C18G G22C A25U A41C the figure was 0.01. With A6U C13U A16C the figure was 0.22; with G7A U9C A12U A14C C31A G35C, 0.02; with G2A A6G G40A, 0.17. Next, U20G G21C C37A: 0.02; A26U U28C G30C U34G: 0.06; C31U U32C U38A G40A C45U: 0.06. On to G21C G40U U43G, for which the self-cleavage is 0.03.

G5U C8G A12G G44C: the self-cleavage worked out at 0.02. Next, A4U G21U U34G C42U: 0.03. Next, A12G C23U C42G: 0.01.

Consider U9G U20C G33C A41C, for which the self-cleavage was 0.01. On to U28G G35A G36A U38G, for which the self-cleavage was determined as 0.01. With A6U C13U U32C the figure was 0.39; with A4G A6C A12G, 0.1. With G27A A41G G44U the figure was 0.17. With C8G C10U G17C C37G the figure was 0.14; with A4C G5U C15A G40C, 0.04; with G21U U32C G36U, 0.18.

Take G5A A24C U28A: the self-cleavage was determined as 0.04. With C13A G21U G22U the figure was 0.08; with A16C G30A G33U, 0.26. As to C3A A11G G36A C37G G40C, the self-cleavage was found to be 0.04. With A4G C18U U20G A24C G30U the figure was 0.04. With G2A G7C U9A C15U G22A C45A the figure was 0.02.

Take C8G A11C G19U: the self-cleavage turned out to be 0.01.

Regarding A25C G29A C31A, the self-cleavage is 0.27. Next, C3U G5U A16U G19A: 0.05.

With C3G C8A U9A, the self-cleavage came out at 0.4. With A16U G17A A24C U28C C42U the figure was 0.05; with C3U G17A A26U, 0.08. Next, C10G G27A C31G: 0.06. With A4U C8U G33A the figure was 0.05; with C3G C15U G19A, 0.1; with C3U U9G G17A G29U, 0.22. G5A G7C U9C G21C A41G: the self-cleavage was found to be 0.04. As to G22U G36C A39U, the self-cleavage was 0.07. Turning to G5C G19C G36A U43A, the self-cleavage is 0.

As for G2C C3U C23G A39G, the self-cleavage was 0.06.

In the case of C15G A16U G40A, the self-cleavage is 0.02. Next, C3A C13U C37U C46A: 0.15; A6C A14G C42G: 0; A11U C13U G19A: 0.02. With C3U U32G C45A the figure was 0.07; with A4U A39U C46G, 0.02. With C10A G17C G29U U32A U34G G40C C45G, the self-cleavage is 0. In the case of C13G G17C G21C G27A G30U U32C C45A, the self-cleavage turned out to be 0.02. With C10G G29C G36C the figure was 0.01. Next, U9G A14C C45A: 0.01. For the variant A4G G5A C13U C15A A16U G30C, the self-cleavage was 0.03.

On to A4G A12U G19C A39U G44U, for which the self-cleavage amounted to 0.03. Next, C10A G27A G36C C37G: 0.01. Next, G5A C10A C13U U38C: 0.02; A12C C42G U43C C45G: 0.01. With C23A A25C U32A U34C C37A A39G the figure was 0.25; with A24U U34A U43C, 0.02; with G2U G5C G30U C45G, 0.02. On to C18G G19A A24C G27C G30A C31A, for which the self-cleavage is 0.14.
